# The supplement of paper PMC8728848
# This is one part of the list.
# Experiments:
# Experiment in all cases: glycan array binding signal (z-score within array); higher = stronger binding
# Conditions in all cases: glycan notation: IUPAC condensed, linker removed
# [1] = molecular target: Gal(a1-3)Gal(b1-4)GlcNAc(b1-2)Man
# In short: (§1)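 Glycan array data were curated from 3228 arrays in the Consortium for Functional Glycomics database and kept only where the protein sequence was available. Glycan names were converted to IUPAC-condensed notation, and columns mapping to the same glycan were averaged. The binding signal is a within-array Z-score, averaged across arrays of the same protein sequence at different concentrations or buffers and across linkers. Negative Z-scores can be read as non-binding.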
# [2] = molecular target: Gal(a1-3)Gal(b1-4)GlcNAc(b1-2)Man(a1-3)[Gal(a1-3)Gal(b1-4)GlcNAc(b1-2)Man(a1-6)]Man(b1-4)GlcNAc(b1-4)GlcNAc
# In short: as §1
# [3] = molecular target: Gal(a1-3)Gal(b1-4)GlcNAc(b1-3)GalNAc
# In short: as §1
# [4] = molecular target: Gal(a1-3)Gal(b1-4)GlcNAc(b1-6)GalNAc
# In short: as §1
# [5] = molecular target: Gal(a1-3)Gal(b1-4)[Fuc(a1-3)]GlcNAc
# In short: as §1
# [6] = molecular target: Gal(a1-3)Gal(b1-4)[Fuc(a1-3)]GlcNAc(b1-2)Man(a1-3)[Gal(a1-3)Gal(b1-4)[Fuc(a1-3)]GlcNAc(b1-2)Man(a1-6)]Man(b1-4)GlcNAc(b1-4)GlcNAc
# In short: as §1
# Gal(a1-3)GalNAc = molecular target: Gal(a1-3)GalNAc
# In short: as §1
# [7] = molecular target: Gal(a1-3)[Gal(a1-4)]Gal(b1-4)GlcNAc
# In short: as §1
# [8] = molecular target: Gal(a1-4)Gal(b1-3)GlcNAc(b1-2)Man(a1-3)[Gal(a1-4)Gal(b1-3)GlcNAc(b1-2)Man(a1-6)]Man(b1-4)GlcNAc(b1-4)GlcNAc
# In short: as §1
# Gal(a1-4)Gal(b1-4)Glc = molecular target: Gal(a1-4)Gal(b1-4)Glc
# In short: as §1
# Gal(a1-4)Gal(b1-4)GlcNAc = molecular target: Gal(a1-4)Gal(b1-4)GlcNAc
# In short: as §1
# [9] = molecular target: Gal(a1-4)Gal(b1-4)GlcNAc(b1-2)Man(a1-3)[Gal(a1-4)Gal(b1-4)GlcNAc(b1-2)Man(a1-6)]Man(b1-4)GlcNAc(b1-4)GlcNAc
# In short: as §1
# [10] = molecular target: Gal(a1-4)Gal(b1-4)GlcNAc(b1-3)Gal(b1-4)Glc
# In short: as §1
# Gal(a1-4)GlcNAc = molecular target: Gal(a1-4)GlcNAc
# In short: as §1
# Gal(a1-6)Glc = molecular target: Gal(a1-6)Glc
# In short: as §1
# Gal(b1-2)Gal = molecular target: Gal(b1-2)Gal
# In short: as §1
# Gal(b1-3)Gal = molecular target: Gal(b1-3)Gal
# In short: as §1
# Gal(b1-3)Gal(b1-4)GlcNAc = molecular target: Gal(b1-3)Gal(b1-4)GlcNAc
# In short: as §1
# Gal(b1-3)GalNAc = molecular target: Gal(b1-3)GalNAc
# In short: as §1
# [11] = molecular target: Gal(b1-3)GalNAc(a1-3)[Fuc(a1-2)]Gal(b1-4)Glc
# In short: as §1
# [12] = molecular target: Gal(b1-3)GalNAc(a1-3)[Fuc(a1-2)]Gal(b1-4)GlcNAc
# In short: as §1
# Gal(b1-3)GalNAc(b1-3)Gal = molecular target: Gal(b1-3)GalNAc(b1-3)Gal
# In short: as §1
# [13] = molecular target: Gal(b1-3)GalNAc(b1-3)Gal(a1-4)Gal(b1-4)Glc
# In short: as §1
# [14] = molecular target: Gal(b1-3)GalNAc(b1-4)Gal(b1-4)Glc
# In short: as §1
# [15] = molecular target: Gal(b1-3)GalNAc(b1-4)[Neu5Ac(a2-3)]Gal(b1-4)Glc
# In short: as §1
# Gal(b1-3)GlcNAc = molecular target: Gal(b1-3)GlcNAc
# In short: as §1
# [16] = molecular target: Gal(b1-3)GlcNAc(a1-3)Gal(b1-4)GlcNAc
# In short: as §1
# [17] = molecular target: Gal(b1-3)GlcNAc(a1-6)Gal(b1-4)GlcNAc
# In short: as §1
# Gal(b1-3)GlcNAc(b1-2)Man = molecular target: Gal(b1-3)GlcNAc(b1-2)Man
# In short: as §1
# [18] = molecular target: Gal(b1-3)GlcNAc(b1-2)Man(a1-3)[Gal(b1-3)GlcNAc(b1-2)Man(a1-6)]Man(b1-4)GlcNAc(b1-4)GlcNAc
# In short: as §1
# [19] = molecular target: Gal(b1-3)GlcNAc(b1-2)Man(a1-3)[Gal(b1-3)GlcNAc(b1-2)Man(a1-6)]Man(b1-4)GlcNAc(b1-4)[Fuc(a1-6)]GlcNAc
# In short: as §1
# [20] = molecular target: Gal(b1-3)GlcNAc(b1-2)Man(a1-3)[GlcNAc(b1-4)][Gal(b1-3)GlcNAc(b1-2)Man(a1-6)]Man(b1-4)GlcNAc(b1-4)GlcNAc
# In short: as §1
# [21] = molecular target: Gal(b1-3)GlcNAc(b1-2)[Gal(b1-3)GlcNAc(b1-6)]Man(a1-6)[Gal(b1-3)GlcNAc(b1-2)Man(a1-3)]Man(b1-4)GlcNAc(b1-4)GlcNAc
# In short: as §1
# [22] = molecular target: Gal(b1-3)GlcNAc(b1-3)Gal(b1-3)GlcNAc
# In short: as §1
# [23] = molecular target: Gal(b1-3)GlcNAc(b1-3)Gal(b1-4)Glc
# In short: as §1
# [24] = molecular target: Gal(b1-3)GlcNAc(b1-3)Gal(b1-4)GlcNAc
# In short: as §1
# [25] = molecular target: Gal(b1-3)GlcNAc(b1-3)Gal(b1-4)GlcNAc(b1-2)Man(a1-3)[Gal(b1-3)GlcNAc(b1-3)Gal(b1-4)GlcNAc(b1-2)Man(a1-6)]Man(b1-4)GlcNAc(b1-4)GlcNAc
# In short: as §1
# [26] = molecular target: Gal(b1-3)GlcNAc(b1-3)Gal(b1-4)GlcNAc(b1-2)[Gal(b1-3)GlcNAc(b1-3)Gal(b1-4)GlcNAc(b1-6)]Man(a1-6)[Gal(b1-3)GlcNAc(b1-3)Gal(b1-4)GlcNAc(b1-2)Man(a1-3)]Man(b1-4)GlcNAc(b1-4)[Fuc(a1-6)]GlcNAc
# In short: as §1
# [27] = molecular target: Gal(b1-3)GlcNAc(b1-3)Gal(b1-4)GlcNAc(b1-3)Gal(b1-4)GlcNAc(b1-2)[Gal(b1-3)GlcNAc(b1-3)Gal(b1-4)GlcNAc(b1-3)Gal(b1-4)GlcNAc(b1-6)]Man(a1-6)[Gal(b1-3)GlcNAc(b1-3)Gal(b1-4)GlcNAc(b1-3)Gal(b1-4)GlcNAc(b1-2)Man(a1-3)]Man(b1-4)GlcNAc(b1-4)[Fuc(a1-6)]GlcNAc
# In short: as §1
# [28] = molecular target: Gal(b1-3)GlcNAc(b1-3)Gal(b1-4)GlcNAc(b1-6)[Gal(b1-3)GlcNAc(b1-3)]Gal(b1-4)Glc
# In short: as §1
# [29] = molecular target: Gal(b1-3)GlcNAc(b1-3)Gal(b1-4)[Fuc(a1-3)]GlcNAc
# In short: as §1
# [30] = molecular target: Gal(b1-3)GlcNAc(b1-3)Gal(b1-4)[Fuc(a1-3)]GlcNAc(b1-6)[Gal(b1-3)GlcNAc(b1-3)]Gal(b1-4)Glc
# In short: as §1
# [31] = molecular target: Gal(b1-3)GlcNAc(b1-3)GalNAc
# In short: as §1
# [32] = molecular target: Gal(b1-3)GlcNAc(b1-6)Gal(b1-4)GlcNAc
# In short: as §1
# [33] = molecular target: Gal(b1-3)GlcNAc(b1-6)GalNAc
# In short: as §1
binder,measurement,setting,value
Epa22 (Candida glabrata) (protein) MGSSHHHHHHSSGLVPRGSHMKRALSSQNPFGYPIGCSPQSTNVIPGLTMELYSYPIVSGTPPNCYDASYVDPEYPRTGYLKRKMIGKSTGVTGSLNYKFSVEKACMVKYGNLPAGYNYNEPLTVSNFTMLLYGYFKPQTSGIHTFFVNADDLLYINFGAGNAFDCCKREDSKFKLGEYVAYDIWHVDSSKNKVSLNLEKDVYYPIRMFFNNIGKDSSLDLSFSVNGAVEHITDFSGYLYSVPDQPDACPAPIGYDTTCK,glycan array binding signal (z-score),[1],4.75
same,glycan array binding signal (z-score),[2],0.265
same,glycan array binding signal (z-score),[3],3.56
same,glycan array binding signal (z-score),[4],2.47
same,glycan array binding signal (z-score),[5],0.998
same,glycan array binding signal (z-score),[6],-0.262
same,glycan array binding signal (z-score),Gal(a1-3)GalNAc,1.12
same,glycan array binding signal (z-score),[7],1.12
same,glycan array binding signal (z-score),[8],0.087
same,glycan array binding signal (z-score),Gal(a1-4)Gal(b1-4)Glc,2.75
same,glycan array binding signal (z-score),Gal(a1-4)Gal(b1-4)GlcNAc,3.58
same,glycan array binding signal (z-score),[9],0.741
same,glycan array binding signal (z-score),[10],-0.077
same,glycan array binding signal (z-score),Gal(a1-4)GlcNAc,5.91
same,glycan array binding signal (z-score),Gal(a1-6)Glc,6.63
same,glycan array binding signal (z-score),Gal(b1-2)Gal,1.37
same,glycan array binding signal (z-score),Gal(b1-3)Gal,1.3
same,glycan array binding signal (z-score),Gal(b1-3)Gal(b1-4)GlcNAc,3.14
same,glycan array binding signal (z-score),Gal(b1-3)GalNAc,-0.142
same,glycan array binding signal (z-score),[11],-0.146
same,glycan array binding signal (z-score),[12],-0.36
same,glycan array binding signal (z-score),Gal(b1-3)GalNAc(b1-3)Gal,0.332
same,glycan array binding signal (z-score),[13],-0.356
same,glycan array binding signal (z-score),[14],0.34
same,glycan array binding signal (z-score),[15],-0.279
same,glycan array binding signal (z-score),Gal(b1-3)GlcNAc,1.27
same,glycan array binding signal (z-score),[16],-0.294
same,glycan array binding signal (z-score),[17],0.491
same,glycan array binding signal (z-score),Gal(b1-3)GlcNAc(b1-2)Man,2.09
same,glycan array binding signal (z-score),[18],-0.314
same,glycan array binding signal (z-score),[19],-0.384
same,glycan array binding signal (z-score),[20],-0.318
same,glycan array binding signal (z-score),[21],-0.285
same,glycan array binding signal (z-score),[22],-0.122
same,glycan array binding signal (z-score),[23],0.04
same,glycan array binding signal (z-score),[24],-0.148
same,glycan array binding signal (z-score),[25],-0.304
same,glycan array binding signal (z-score),[26],-0.3
same,glycan array binding signal (z-score),[27],-0.325
same,glycan array binding signal (z-score),[28],-0.145
same,glycan array binding signal (z-score),[29],-0.108
same,glycan array binding signal (z-score),[30],-0.129
same,glycan array binding signal (z-score),[31],2.18
same,glycan array binding signal (z-score),[32],1.41
same,glycan array binding signal (z-score),[33],0.411
